Assay results as given in PubChem BioAssay AID1508623 (National Center for Advancing Translational Sciences (NCATS), 2021).
Screen size: about 48,000 compounds; about 450 (0.94%) were called active. Inconclusive results (about 19%) are left out. The call rests on the fitted dose curve; in most records, active means well fitted inhibition curve with a large enough effect; inconclusive means small, poorly fitted or top-dose-only effect; inactive means no such curve, though single readings can be large or run the other way. The list shows a part of the results.

assay: Primary qHTS for Identification of Small Molecule Inhibitors of Huntingtin Promoter Activity; settings: HEK293 HTT promoter firefly luciferase reporter (activity 0% = vehicle and -100% = no light), 24 h; series mostly up to 57.5 µM; activity change, negative = inhibition: at the top concentration; further: nearly all actives have a fitted effect of over 50% in size
Text: Assay Provider: Russell L. Margolis M.D.
Department Neurology, Johns Hopkins University School of Medicine, Baltimore, MD
Huntington's Disease (HD) is a neurodegenerative disorder caused by a CAG repeat expansion in exon 1 of huntingtin (HTT). While there are currently no disease-modifying treatments for HD, recent efforts have focused on development of nucleotide-based therapeutics to lower HTT expression. As an alternative to siRNA or oligonucleotide methods, we hypothesized that suppression of HTT expression might be accomplished by small molecules that either (1) directly decrease HTT expression by suppressing HTT promoter activity or (2) indirectly decrease HTT expression by increasing the promoter activity of HTT-AS, the gene antisense to HTT that appears to inhibit expression of HTT.
We developed and employed a high throughput screen for modifiers of HTT and HTT-AS promoter activity using luminescent reporter HEK293 cells; of the 52,041 compounds tested, we identified 898 replicable hits. We used a rigorous stepwise approach to assess compound toxicity and the capacity of the compounds to specifically lower huntingtin protein in 5 different cell lines, including HEK293 cells, HD lymphoblastoid cells, mouse primary neurons, HD iPSCs differentiated into cortical-like neurons, and HD hESCs. We found no compounds which were able to lower huntingtin without lowering cell viability in all assays, though the potential efficacy of a few compounds at non-toxic doses could not be excluded.
SEQUENCE No. (1, 2, 3, etc.); […] (e.g., Cells, Incubation, Reagent, etc.); VALUE and DESCRIPTION.
1; Reagent; 4 uL; 2,500 Hek293 luciferase reporter cells per wells
3; Compound; 23 nL; Control inhibitor / compound library
5; Reagent; 2.5 uL; Firefly Luc reagent; Dual-Glo Luciferase Reporter Assay System (Promega)
6; Time; 10 min; room temperature incubation
7; Detection; Luminescence; FLuc
NOTES (numbers refer to sequence above)
1; High-throughput screening, measuring luminescence from a Hek293 luciferase reporter, was performed in 1,536 well white-walled tissue-culture treated plates. 2,500 cells were plated in 4 µL of Opti-MEM per well using a Multidrop Combi Reagent Dispenser (ThermoFisher).
2; Assay plates were cultured for 24 hours.
3; Control inhibitor (PTC124; final concentration of 50 uM) and compound library (at final concentrations of 460 nM - 57.5 uM) were added to the assay plate using the Kalypsis Pintool Robotic System equipped with 1536 pinheads.
4; Cells were then incubated for 24 hours at 37 degrees C prior to luminescence measurements.
5; In all cases, luminescence was measured using the Dual-Glo Luciferase Reporter Assay System (Promega) following the manufacturer's instructions.
6; Room temperature incubation.
7; Luminescence signal was obtained using the PerkinElmer ViewLux plate reader. Results were normalized to vehicle control (0% activity) and zero RLU (-100% activity).

Activity change, negative = inhibition, inactive:
COc1ccc(-n2c(=O)c3sc4ccccc4c3n(C)c2=O)cc1 1.97%
CCOC(=O)Cc1ccc(NC(=O)N2CCSc3ccccc32)cc1 -1.77%
Cc1ccc(-c2nc(CS(=O)CC(=O)NCc3ccccc3Cl)c(C)o2)cc1 (stereo unspecified) -5.87%
CCCN(CCC)CCCNC(=O)C1CCCN(Cc2nc(-c3ccc(Cl)cc3)oc2C)C1 (stereo unspecified) -20.8%
COc1ccccc1NC(=O)CSC1=Nc2ccccc2C2=NC(CCC(=O)NCc3ccco3)C(=O)N12 (stereo unspecified) -9.94%
O=c1ccc2cc(S(=O)(=O)Nc3ccc(F)c(Cl)c3)ccc2[nH]1 -18.1%
CCOc1ccc2nc(SCC(=O)Nc3ccc(F)cc3)nc(-c3ccccc3)c2c1 -1.16%
COc1cccc(CNC(=O)Cc2c(C)c3c(cc(C)c4c(C)c(C)oc43)oc2=O)c1 -0.83%
Cn1nnc2c(NCc3ccc(Cl)cc3)ncnc21 -10.5%
COc1ccc(OC)c(NC(=O)C2Cc3ccccc3CN2S(=O)(=O)c2ccc(F)cc2)c1 (stereo unspecified) -26.7%
CC1=C(C(=O)Nc2ccc(Cl)cc2)C(c2ccccc2F)n2nc(SCc3cccc(Cl)c3)nc2N1 (stereo unspecified) -3.6%
O=C(Nc1nc2ccccc2n1CCN1CCOCC1)c1cccc([N+](=O)[O-])c1 -0.354%
Cc1ccc(Cn2c(=O)n(CCc3ccc(Cl)cc3)c(=O)c3ccccc32)cc1 -11.5%
Cc1ccc(-n2ncc3c(NC(C)c4ccccc4)ncnc32)cc1 (stereo unspecified) -11.2%
COc1ccc(NC(=O)Cn2c(=O)n(Cc3ccccc3OC)c(=O)c3cccnc32)cc1Cl -27.1%
Cc1sc2ncn(CC(=O)Nc3ccc(C(C)C)cc3)c(=O)c2c1S(=O)(=O)N1CCN(c2ncccn2)CC1 -19.6%
CC1(C)N=C(SCc2ccccc2Cl)c2ccccc2N1 -7.27% [at 11.5 µM]
Cc1ccc(S(=O)(=O)c2nnn3c2nc(NC(C)C)c2cc(Cl)ccc23)cc1C -11.3%
Cc1cccc(-c2noc(-c3cccnc3NCc3ccc(Cl)cc3)n2)c1 6.3%
COc1ccc2c(c1)sc1ncc(C(=O)NCc3ccccc3F)c(=O)n12 7.13%
O=C(CCSCc1cccc(Cl)c1)N1CCN(c2ccc(Cl)cc2)CC1 -11.9%
Cc1ccccc1C(=O)N1CC(=O)Nc2ccc(Cl)cc2C1c1ccccc1 (stereo unspecified) -26.3%
CCOc1ccc(NS(=O)(=O)c2ccc(C(=O)N(C)C)s2)cc1 -53.5%
O=C(c1cccc(Cl)c1)N1c2nc(-c3ccco3)nn2C2(CCCCC2)[C@@H]2CCCC[C@@H]21 -5.57%
COc1ccc(CCNC(=O)CCCCn2c(=O)c3ccccc3n(CC(=O)Nc3c(C)cccc3C)c2=O)cc1OC -6.93%
C#CCn1c(=NC(=O)c2ccc3c(c2)OCCO3)sc2cc(OC)c(OC)cc21 -4.11%
